Some of the results follow. Many values rest on one well or one pass, so single values are uncertain.
Columns and labels:
Test in all cases: cell count relative to DMSO control; melanoma cells; higher = more viable cells
Details in all cases: library dose: low library concentration; 72 h
[1] = system: COLO792
[2] = system: COLO800
[3] = system: COLO829
[4] = system: G361
[5] = system: IPC-298
[6] = system: IST-MEL1
[7] = system: LB2518-MEL
[8] = system: LOXIMVI
[9] = system: MEL-HO
[10] = system: MZ2-MEL
[11] = system: MeWo
[12] = system: RPMI7951
[13] = system: RVH-421
[14] = system: SkMel28
[15] = system: SkMel2
[16] = system: SkMel30
[17] = system: SkMel5
[18] = system: UACC257
[19] = system: UACC62
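Further: cell number obtained by counting DAPI-stained nuclei in high-throughput microscope images with image analysis software, screen run in 1,536-well plates.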

Row | Compound | cell count [1] [%] | cell count [2] [%] | cell count [3] [%] | cell count [4] [%] | cell count [5] [%] | cell count [6] [%] | cell count [7] [%] | cell count [8] [%] | cell count [9] [%] | cell count [10] [%] | cell count [11] [%] | cell count [12] [%] | cell count [13] [%] | cell count [14] [%] | cell count [15] [%] | cell count [16] [%] | cell count [17] [%] | cell count [18] [%] | cell count [19] [%]
1 | NC1(c2ccc(-c3nc4ccn5c(=O)[nH]nc5c4cc3-c3ccccc3)cc2)CCC1 + Cn1cc(/C=C2\C(=O)Nc3cccnc32)c2ccccc21 [GW441756] (first compound 0.4 µM, partner dose 0.4 µM) | 69.4 | 122 | 114 | 89.3 | 93.7 | 83.3 | 97.3 | 79.4 | 87 | 95.8 | 89.7 | 96.9 | 87.8 | 63.1 | 97.4 | 88.3 | 79.5 | 70.9 | 84.3
2 | CN(c1ncccc1CNc1nc(Nc2ccc3c(c2)CC(=O)N3)ncc1C(F)(F)F)S(C)(=O)=O + Oc1nc(-c2ccc(C(F)(F)F)cc2)nc2c1CSCC2 [XAV939] (first compound 0.08 µM, partner dose 2 µM) | 59.3 | 100 | 103 | 90.1 | 101 | 105 | 102 | 92.7 | 113 | 97.5 | 96.7 | 69.2 | 137 | 116 | 90.7 | 104 | 71.3 | 100 | 90.6
3 | CN(c1ncccc1CNc1nc(Nc2ccc3c(c2)CC(=O)N3)ncc1C(F)(F)F)S(C)(=O)=O + COc1ccc2c(c1)CCC1C2CCC2(C)C(NCCCCCCN3C(=O)C=CC3=O)CCC12 [U73122] (first compound 0.08 µM, partner dose 0.4 µM) | 100 | 133 | 79.3 | 100 | 100 | 99.4 | 95.4 | 83.9 | 84.8 | 98.2 | 102 | 64.1 | 113 | 106 | 97 | 97.7 | 82.5 | 78.2 | 96
4 | C=C(c1ccc(C(=O)O)cc1)c1cc2c(cc1C)C(C)(C)CCC2(C)C [Bexarotene] + CC(C)CCN1c2nc(Nc3cc(F)c(O)c(F)c3)ncc2N(C)C(=O)C1C [BID1870] (first compound 2 µM, partner dose 0.2 µM) | 98.8 | 111 | 89.1 | 70.3 | 88.7 | 90.1 | 102 | 140 | 96.9 | 99.3 | 83.6 | 64.2 | 90.9 | 71.2 | 83.5 | 91.5 | 96.8 | 108 | 80.5
5 | CS(=O)(=O)c1ccc(C(=O)Nc2ccc(Cl)c(-c3ccccn3)c2)c(Cl)c1 [vismodegib] + Cc1cc(N2CCOCC2)cc2[nH]c(-c3c(NC[C@@H](O)c4cccc(Cl)c4)cc[nH]c3=O)nc12 [BMS536924] (first compound 1 µM, partner dose 0.2 µM) | 74.2 | 37.2 | 130 | 92.2 | 89.4 | 90.4 | 82.1 | 125 | 88 | 106 | 91.7 | 99.8 | 99 | 97 | 98.7 | 72.3 | 96.1 | 92.2 | 85.9
6 | C=C(c1ccc(C(=O)O)cc1)c1cc2c(cc1C)C(C)(C)CCC2(C)C [Bexarotene] + COc1ccc2c(c1)CCC1C2CCC2(C)C(NCCCCCCN3C(=O)C=CC3=O)CCC12 [U73122] (first compound 2 µM, partner dose 0.4 µM) | 91.8 | 76.2 | 89.2 | 107 | 105 | 94.8 | 100 | 88.3 | 96.9 | 98.6 | 78.2 | 59.1 | 99.3 | 78.5 | 98.5 | 103 | 91.3 | 88.3 | 91.5
7 | C=C(c1ccc(C(=O)O)cc1)c1cc2c(cc1C)C(C)(C)CCC2(C)C [Bexarotene] + COc1ccc(COc2ccc(Cc3cnc(N)nc3N)cc2OC)cc1 [GW2580] (first compound 2 µM, partner dose 1 µM) | 108 | 184 | 111 | 86.7 | 96.9 | 99.1 | 101 | 109 | 91.1 | 93.1 | 86.3 | 92.4 | 158 | 83.8 | 87.2 | 117 | 85.5 | 115 | 104
8 | NC1(c2ccc(-c3nc4ccn5c(=O)[nH]nc5c4cc3-c3ccccc3)cc2)CCC1 + O=C(O)C(=O)Nc1sc2c(c1C(=O)O)CCNC2 [TCS401] (first compound 0.4 µM, partner dose 1.66667 µM) | 71.8 | 85.8 | 112 | 95.4 | 92.4 | 98.1 | 82.3 | 87.8 | 73.1 | 94.8 | 94.3 | 101 | 91.4 | 79.7 | 78.5 | 106 | 86.5 | 87.9 | 71.7
9 | CS(=O)(=O)c1ccc(C(=O)Nc2ccc(Cl)c(-c3ccccn3)c2)c(Cl)c1 [vismodegib] + c1cc(-c2cnn3cc(-c4ccc(OCCN5CCCCC5)cc4)cnc23)ccn1 [Dorsomorphin] (first compound 1 µM, partner dose 0.4 µM) | 91.3 | 62.8 | 82 | 74.2 | 96.7 | 96.9 | 105 | 120 | 88.8 | 92.5 | 88.3 | 98.1 | 93.1 | 87.6 | 97.5 | 111 | 77.2 | 87.5 | 89.3

From the supplement of paper PMC4604168 (melanoma cell lines)
